Screen size: about 270,000 compounds; about 5,800 (2.1%) were called active. Inconclusive results, whose numbers are uncertain, are shown with a selection of clear calls. Calls follow the shape of the dose curve; as a rule, active = well fitted inhibition curve with a large enough effect; inconclusive = small, poorly fitted or top-dose-only effect; inactive = flat fitted curve, though single readings scatter. Where the call is inconclusive, the potency comes from a doubtful curve fit.
target: Microtubule-associated protein tau (Homo sapiens) (UniProt P10636); experiment: qHTS for Inhibitors of Tau Fibril Formation, Thioflavin T Binding; conditions: recombinant tau K18 P301L, heparin-induced fibrillization, ThT fluorescence; series mostly up to 57.4 µM; activity, negative = inhibition: at the top concentration; also: nearly all actives have a fitted effect of over 55% in size
Chain of UniProt P10636 (P10636 whole entry, looked up): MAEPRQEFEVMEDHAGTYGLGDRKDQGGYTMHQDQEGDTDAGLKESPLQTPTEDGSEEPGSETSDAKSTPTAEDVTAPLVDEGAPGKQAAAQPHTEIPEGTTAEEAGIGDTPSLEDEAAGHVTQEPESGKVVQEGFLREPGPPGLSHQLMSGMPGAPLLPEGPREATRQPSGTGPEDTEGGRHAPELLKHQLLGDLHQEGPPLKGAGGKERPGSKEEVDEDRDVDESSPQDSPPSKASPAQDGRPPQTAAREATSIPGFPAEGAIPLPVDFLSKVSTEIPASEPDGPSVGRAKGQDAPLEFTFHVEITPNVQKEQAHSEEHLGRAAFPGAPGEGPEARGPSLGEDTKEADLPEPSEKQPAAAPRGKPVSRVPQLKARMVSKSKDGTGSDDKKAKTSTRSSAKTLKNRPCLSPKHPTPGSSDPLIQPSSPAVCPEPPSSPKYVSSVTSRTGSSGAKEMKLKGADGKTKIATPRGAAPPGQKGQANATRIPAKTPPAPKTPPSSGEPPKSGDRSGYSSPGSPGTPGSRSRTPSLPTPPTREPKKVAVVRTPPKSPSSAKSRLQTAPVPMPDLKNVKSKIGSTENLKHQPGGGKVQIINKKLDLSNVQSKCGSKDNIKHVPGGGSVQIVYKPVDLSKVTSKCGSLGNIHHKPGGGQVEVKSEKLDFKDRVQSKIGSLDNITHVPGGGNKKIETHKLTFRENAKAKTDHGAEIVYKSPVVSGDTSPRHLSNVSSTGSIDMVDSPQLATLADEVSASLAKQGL
Summary of the method: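 ThT emission at 510 nm, taken 1 hr after adding 30 uM dye, quantifies aggregates formed when 20 uM heparin acts on human tau K18 P301L for 6 hr at 37 C.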
% is scaled to controls: 0 for no effect and ±100 for the full control effect; potency is read from the fitted curve at half-maximal effect; tags tell the direction and shape of the fitted curve.

For `Nc1nc(-c2ccc3c(c2)OCCO3)cs1`, which Potency is on record?
The Potency was inconclusive: 7.94 µM [inhibitor, partial curve].

How did the “activity, negative = inhibition” value turn out when `O=C1CC(Sc2ncccn2)C(=O)N1c1ccccc1` (centres undefined) was run?
Its value is inactive: -5.15%.

With `C(=N\Nc1ccc2ccccc2n1)/c1ccc2c(c1)OCO2` as the compound, how does the Potency read?
Its Potency is active: 10 µM.

Which Potency does the source give for `COc1ccc(/C=C/C(=O)Nc2ccc(N3CCOCC3)cc2)cc1` here?
The Potency was active: 3.98 µM.

`CCCCOc1ccccc1CC1C(=O)Nc2ccc(Br)cc21` (centres undefined) was tested. Which Potency did it give?
The Potency was inconclusive: 28.2 µM [inhibitor, partial curve, poor fit].

With `Cc1sc2nc(CN3CCOCC3)nc(N3CCC(C(N)=O)CC3)c2c1C` as the compound, how does the “activity, negative = inhibition” value read?
Its value is inactive: -1.34%.

`O=C(N/N=C/c1ccc(OC(F)F)cc1)c1ccc(Br)cc1` was tested. Which Potency did it give?
The Potency was inconclusive: 1 µM [inhibitor, full curve].

How did the Potency turn out when `CCNC(=O)COC(=O)c1cc(-c2ccco2)nc2ccccc12` was run?
Its Potency is inconclusive: 28.2 µM [inhibitor, partial curve].

How did the Potency turn out when `CCc1ccc(NC(=O)Cn2c(=O)n(Cc3ccco3)c(=O)c3oc4ccccc4c32)cc1` was run?
The Potency was inconclusive: 11.2 µM [activator, partial curve].

`CC(=O)C1=C(O)C(=O)N(CCc2c[nH]c3ccccc23)C1c1ccco1` (centres undefined) was tested. Which Potency did it give?
Its Potency is inconclusive: 25.1 µM [inhibitor, partial curve].

Which Potency does the source give for `CCOC(=O)c1c(NC(=O)c2cc(-c3cccc(OC)c3)on2)sc2c1CCCC2` here?
Its Potency is inconclusive: 35.5 µM [inhibitor, partial curve].

How did the Potency turn out when `Cn1c(NCc2ccccc2)nc2c1c(=O)n(Cc1ccc(Br)cc1)c(=O)n2C` was run?
Its Potency is inconclusive: 22.4 µM [inhibitor, partial curve].

With `CC1CCc2sc(C(=O)N/N=C/c3ccc([N+](=O)[O-])cc3)cc2C1` (centres undefined) as the compound, how does the Potency read?
The Potency was inconclusive: 1.12 µM [inhibitor, full curve].

Which “activity, negative = inhibition” value does the source give for `O=C1[C@@H]2CSC(c3ccc(Cl)cc3)N2C(=O)N1c1ccccc1` (some centres undefined) here?
Its value is inactive: -4.17%.

`COc1cc([N+](=O)[O-])ccc1NC(=O)COC(=O)c1n[nH]c2ccccc12` was tested. Which Potency did it give?
The Potency was inconclusive: 25.1 µM [inhibitor, partial curve].

How did the Potency turn out when `CC(C)(C)OC(=O)N/N=C/c1c[nH]c2ccccc12` was run?
Its Potency is inconclusive: 20 µM [inhibitor, single point].

How did the “activity, negative = inhibition” value turn out when `O=C(COc1ccc(F)cc1)Nc1ccc2nc(SCC(=O)N3CCOCC3)sc2c1` was run?
Its value is inactive: -3.3%.

`COc1ccc(-c2noc(COc3cc(C)ccc3C)n2)cc1OC` was tested. Which Potency did it give?
Its Potency is inconclusive: 15.8 µM [inhibitor, partial curve].

`CCCCNS(=O)(=O)c1ccc(NC(=O)c2c(-c3ccccc3Cl)noc2C)cc1` was tested. Which “activity, negative = inhibition” value did it give?
Its value is inactive: -9.3%.

With `CCCC(C)NC(=O)c1cccc(Oc2ccccc2)c1` (centres undefined) as the compound, how does the “activity, negative = inhibition” value read?
The value was inactive: 0.893%.

Which “activity, negative = inhibition” value does the source give for `COc1ccc(C2=C(C)C(=O)N(Cc3ccc(C(=O)NCc4cccc(C)c4)cc3)S2(=O)=O)cc1` here?
Its value is inactive: -4.18%.

`COc1ccc(-c2noc(N3CCC(C(=O)N4CCN(c5cccc(C)c5C)CC4)CC3)n2)cc1` was tested. Which Potency did it give?
The Potency was inconclusive: 5.62 µM [inhibitor, partial curve].

`COc1ccc(C2=NC(c3ccncc3)=Nc3ccc(OC)cc3N2)cc1` was tested. Which Potency did it give?
The Potency was inconclusive: 22.4 µM [inhibitor, single point].

Which Potency does the source give for `COc1ccc(OC)c2c1sc(=NC(=O)C(C)C)n2C` here?
Its Potency is inconclusive: 31.6 µM [inhibitor, partial curve].

`COc1ccccc1-c1cc(C(=O)N2CCN(c3ccccc3OC)CC2)no1` was tested. Which Potency did it give?
The Potency was inconclusive: 14.1 µM [inhibitor, partial curve].

How did the “activity, negative = inhibition” value turn out when `Cc1cc(C(=O)Nc2sc3c(c2C#N)CCC(C(C)(C)C)C3)no1` (centres undefined) was run?
Its value is inactive: -10.5%.

Which Potency does the source give for `C/C=C1/C(=O)C[C@@H]2[C@H]3CCC4=CC(=O)CC[C@]4(C)[C@@H]3CC[C@]12C` here?
The Potency was inconclusive: 0.1 µM [inhibitor, full curve, poor fit].

Which “activity, negative = inhibition” value does the source give for `CCn1c(COc2ccc3c(c2)OCO3)nnc1SCC(=O)c1ccccc1` here?
Its value is inactive: 5.3%.

How did the Potency turn out when `COc1ccc(C2C(C(C)=O)=C(C)N=c3s/c(=C/c4ccc5c(c4)OCO5)c(=O)n32)cc1` (centres undefined) was run?
The Potency was inconclusive: 10 µM [inhibitor, partial curve].

How did the Potency turn out when `COCCCn1c(SCC(=O)Nc2ccc(C(C)=O)cc2)nc2ccccc2c1=O` was run?
Its Potency is inconclusive: 11.2 µM [inhibitor, partial curve].

With `COc1cccc(-c2cc(=O)c3ccc(OC)cc3o2)c1` as the compound, how does the “activity, negative = inhibition” value read?
Its value is inactive: -18.7%.

With `CCOc1ccc(N(C)S(=O)(=O)c2ccc3c(c2)CCCN3C(C)=O)cc1` as the compound, how does the Potency read?
The Potency was inconclusive: 25.1 µM [inhibitor, single point].

How did the activity, negative = inhibition turn out when `C[C@@H]1CC[C@H]2C(=O)O[C@H](CN=[N+]=[N-])CN2[C@@H]1c1ccc(Br)cc1` was run?
Its activity, negative = inhibition is inactive: -1.81% [at 11.5 µM].

How did the “activity, negative = inhibition” value turn out when `O=C(CSCn1nnc2c(=O)[nH]c(Cc3ccc(F)cc3)nc21)Nc1cccc(C(F)(F)F)c1` was run?
The value was inactive: -2.34%.

With `Brc1ccc2nc(-c3c[nH]c4ccccc34)cn2c1` as the compound, how does the Potency read?
Its Potency is active: 10 µM.

With `CCCSc1nnc(NC(=O)c2sc3nc(-c4cccs4)ccc3c2N)s1` as the compound, how does the Potency read?
Its Potency is active: 7.94 µM.

With `Cc1cc(C)c2c(=O)n(CC(=O)NCCCN3CCN(c4ccccc4F)CC3)sc2n1` as the compound, how does the Potency read?
Its Potency is active: 14.1 µM.

Which Potency does the source give for `Cc1cccc(OCC(=O)O/N=C(\N)Cc2ccc([N+](=O)[O-])cc2)c1` here?
Its Potency is inconclusive: 14.1 µM [inhibitor, partial curve].

`S=C(Nc1ccc(N2CCOCC2)cc1)Nc1ccc2snnc2c1` was tested. Which Potency did it give?
Its Potency is inconclusive: 15.8 µM [inhibitor, partial curve].

Which Potency does the source give for `CCCCN(C)C(=S)Nc1ccc(Oc2ccccc2)cc1` here?
Its Potency is inconclusive: 20 µM [inhibitor, single point].

How did the Potency turn out when `C/C(CC(=O)Nc1cccc(Cl)c1Cl)=N\NC(=O)c1ccccc1C` was run?
The Potency was active: 5.62 µM.

For `O=C(/C=C/c1ccc(Cl)cc1Cl)c1ccc[nH]1`, which Potency is on record?
The Potency was inconclusive: 15.8 µM [inhibitor, partial curve].

Which Potency does the source give for `Cc1ccsc1CN1CCc2nc(Nc3ccccc3)ncc2C1` here?
Its Potency is inconclusive: 15.8 µM [inhibitor, partial curve, poor fit].

`Brc1ccc(-c2nnc(-c3ccccc3Br)o2)cc1` was tested. Which Potency did it give?
The Potency was inconclusive: 7.94 µM [inhibitor, partial curve, poor fit].

Which “activity, negative = inhibition” value does the source give for `CC(NC(=O)CSc1n[nH]c(-c2ccccc2Cl)n1)c1nc2ccccc2[nH]1` (centres undefined) here?
Its value is inactive: -0.644%.

With `CCOC(=O)c1c(NC(=O)C2CC2)sc(C)c1CC` as the compound, how does the Potency read?
The Potency was active: 28.2 µM.

How did the Potency turn out when `CCCCC(=O)OC1=C(C(=O)c2ccccc2)N(CCC)S(=O)(=O)c2ccccc21` was run?
The Potency was inconclusive: 14.1 µM [inhibitor, partial curve].

With `COc1cccc2cc(C(=O)C3=C(O)C(=O)N(CCN4CCOCC4)C3c3cccs3)oc12` (centres undefined) as the compound, how does the Potency read?
The Potency was inconclusive: 35.5 µM [inhibitor, single point].

Which Potency does the source give for `NC1=NC[C@H](Cc2ccc(O)cc2)N1CCc1cccc2ccccc12` here?
Its Potency is inconclusive: 28.2 µM [inhibitor, single point].

For `N#C/C(=C\c1ccccc1)c1nc2ncccc2[nH]1`, which Potency is on record?
The Potency was inconclusive: 31.6 µM [inhibitor, partial curve].

For `COc1ccccc1NC(=O)Cn1c(=O)n(Cc2ccccc2)c(=O)c2c1c1cc(C)ccc1n2C`, which “activity, negative = inhibition” value is on record?
The value was inactive: -1.44%.

With `CN(C)C(=O)Oc1cccc([N+](C)(C)C)c1` as the compound, how does the Potency read?
Its Potency is “inactive”.

With `O=C1CCCC2=C1C(c1ccccc1)n1c(s/c(=C/c3cccc(F)c3)c1=O)=N2` (centres undefined) as the compound, how does the Potency read?
The Potency was inconclusive: 12.6 µM [inhibitor, partial curve].

How did the Potency turn out when `Cc1ccccc1NC(=O)Cn1cc(C(=O)c2cccs2)c2ccccc21` was run?
Its Potency is inconclusive: 44.7 µM [inhibitor, single point].

For `Cc1ccc(NC2Sc3ccccc3NC2=O)cc1Cl` (centres undefined), which Potency is on record?
The Potency was inconclusive: 44.7 µM [inhibitor, single point].

How did the “activity, negative = inhibition” value turn out when `O=C(Cn1c(SCc2ccccc2F)nc2ccncc21)Nc1ccccc1C(F)(F)F` was run?
Its value is inactive: 0.278%.

How did the Potency turn out when `CCOc1ccc(NC(=O)c2ccc3[nH]c(C)c(C)c3c2)cc1` was run?
The Potency was inconclusive: 2.82 µM [inhibitor, full curve].

Which Potency does the source give for `NC(=O)c1sc2nc(N3CCCCC3)c3c(c2c1N)CCCC3` here?
Its Potency is inconclusive: 25.1 µM [inhibitor, single point].

For `N=C(N)SCP(=O)(c1ccccc1)c1ccccc1`, which Potency is on record?
The Potency was inconclusive: 25.1 µM [inhibitor, partial curve].

With `CCOc1cc(C(=O)NCCc2sc(-c3ccc(F)cc3)nc2C)cc(OCC)c1OCC` as the compound, how does the Potency read?
Its Potency is inconclusive: 39.8 µM [inhibitor, single point].

With `COc1ccc(NC(=S)NCCc2c(C)[nH]c3ccc(OC)cc23)cc1` as the compound, how does the Potency read?
Its Potency is inconclusive: 22.4 µM [inhibitor, partial curve, poor fit].

How did the Potency turn out when `COC(=O)c1ccc(/C=N/OCC(=O)NCCc2ccc(OC)c(OC)c2)cc1` was run?
Its Potency is inconclusive: 10 µM [inhibitor, partial curve].

Which Potency does the source give for `COc1ccc(C2=COc3ccccc3C(=O)N2)cc1` here?
Its Potency is inconclusive: 12.6 µM [inhibitor, partial curve].

How did the Potency turn out when `CC(=O)Nc1ccc(-c2csc(NC(=O)Nc3ccccc3)n2)cc1` was run?
The Potency was inconclusive: 2.51 µM [inhibitor, single point].

`COc1ccc(C(=O)NC(=O)Nc2cc(C)ccn2)cc1` was tested. Which Potency did it give?
The Potency was inconclusive: 31.6 µM [inhibitor, partial curve].

With `CCn1c(=O)c([N+](=O)[O-])c(NCC(O)c2ccccc2)c2ccccc21` (centres undefined) as the compound, how does the Potency read?
Its Potency is inconclusive: 39.8 µM [inhibitor, single point].

Which Potency does the source give for `CCCC(=O)Nc1ccc(C(=O)NN=C(C2CC2)C2CC2)cc1` here?
The Potency was inconclusive: 2.51 µM [inhibitor, partial curve].

Which “activity, negative = inhibition” value does the source give for `CCc1ccc(S(=O)(=O)c2nnn3c2nc(Nc2cc(OC)ccc2OC)c2sccc23)cc1` here?
Its value is inactive: -5.87%.

`O=C(c1cccs1)N(C(=O)c1cccs1)c1ccc(Br)cn1` was tested. Which Potency did it give?
Its Potency is inconclusive: 22.4 µM [inhibitor, partial curve].

From PubChem BioAssay AID1460 (National Center for Advancing Translational Sciences (NCATS), 2008)
